Measurements: PubChem BioAssay AID743279 (National Center for Advancing Translational Sciences (NCATS), 2014)
The campaign covered roughly 360,000 compounds. About 17,000 (4.7%) were called active. This list was built around the results that the source calls inconclusive (neither active nor inactive); the mix of calls is not that of the screen. Cut-off read from the data, not from the text of the source: active = activity change below about -50%; inconclusive = mostly about -30% to -49%; inactive = weaker than that.

Test: qHTS for Inhibitors of Inflammasome Signaling: IL-1-beta AlphaLISA Primary Screen
Settings: THP-1 LPS/ATP IL-1B secretion, 16 h; at 57.5 µM, active compounds read low
In short: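 Secreted IL-1B measured by AlphaLISA bead assay after 16 h compound exposure of THP-1 cells; compounds (final up to 57.5 uM) added 1 h before LPS (250 ng/mL) and ATP (1.25 mM) stimulation; lower signal means less secretion.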
% is set by controls: 0 for no effect and ±100 for the full control effect.

Row | SMILES | activity change
1 | COc1ccccc1C(=O)NCc1nnc(SCC(=O)Nc2nccs2)n1C | inactive: 27%
2 | CCS(=O)(=O)c1ncc(Cl)c(C(=O)Nc2ccc(S(=O)(=O)N3CCC(C)CC3)cc2)n1 | active: -104%
3 | O=C(c1ccccc1)N1CCN(C(=O)c2cc3nc(-c4ccccc4)cc(C(F)(F)F)n3n2)CC1 | inconclusive: -45.9%
4 | CN(C)c1ccc(C(CNC(=O)COc2ccc(Cl)cc2)N2CCCC2)cc1 (stereo not drawn) | inconclusive: -46.4%
5 | Cc1cc(C)c2nc(N3CCC(C(=O)N4CCN(C(=O)c5ccco5)CC4)CC3)sc2c1 | inconclusive: -33.4%
6 | CCCCCCCCN1C(=O)[C@H](CC(=O)N2CCN(C(=O)C3CC3)CC2)C[C@@]2(C(=O)OC)CCCCC=C12 | active: -51.4%
7 | COCCN(C(=O)COC(=O)c1oc2ccc(OC)cc2c1C)c1c(N)n(Cc2ccccc2)c(=O)[nH]c1=O | inactive
8 | Cc1ccc(S(=O)(=O)N2CCN(C)CC2)cc1-c1nnc2c3ccccc3c(C)nn12 | inconclusive: -33.5%
9 | COc1cc(C(=O)O[C@H]2C/C(C)=C/CC[C@]3(C)O[C@@H]3C(O)C2C(C)C)cc(OC)c1OC (stereo partly drawn) | inconclusive: -47.8%
10 | COCCn1c(SCC(=O)Nc2cccc(NC(C)=O)c2)nc2c([nH]c3ccccc32)c1=O | inactive
11 | COc1ccc(-c2cc(C(F)(F)F)n3nc(C(=O)Nc4c(C)n(C)n(-c5ccccc5)c4=O)cc3n2)cc1 | inactive: -0.778%
12 | COC(=O)c1ccc(S(=O)(=O)N(Cc2ccccc2)Cc2ccccc2)n1C | inconclusive: -37.8%
13 | Cc1nn(CC(=O)OCC(=O)NCCc2ccc(S(N)(=O)=O)cc2)c(C)c1[N+](=O)[O-] | inactive: 3.32%
14 | CC1(C)Cc2c(c(N3CCOCC3)nc3snc(N)c23)CO1 | active: -108%
15 | CC(C)(C)c1ccc(-c2nc(C#N)c(N3CCC(C(N)=O)CC3)o2)cc1 | active: -94.2%
16 | CC(=O)NCc1ccc(-c2csc(-c3cccs3)n2)cc1 | inconclusive: -45.3%
17 | O=C1CCCCN1CC(=O)N1CCCC(Nc2ccc(F)c(F)c2)C1 (stereo not drawn) | inactive: 10.3%
18 | CCOc1ccc(CCN2C(=O)C(=O)N([C@@H](CC(C)C)CN3CCC[C@H]3CN3C(=O)C(=O)NC[C@@H]3Cc3ccccc3)C[C@@H]2CC(C)C)cc1 | inactive: -1.26%
19 | O=C(NC1CCN(Cc2ccccc2)CC1)c1cccc(S(=O)(=O)Nc2ccc(Br)cc2)c1 | inconclusive: -37.4%
20 | COc1ccccc1/C=N/NC(=O)CN(C1=NS(=O)(=O)c2ccccc21)c1ccccc1 | inconclusive: -48.4%
21 | C=CCc1cccc(CNc2nc3ccccc3n2CCC)c1O | inconclusive: -30.9%

Row | SMILES | activity change
22 | COc1ccc(CCC(=O)Nc2cc(Cl)ccc2N2CCN(C)CC2)cc1 | inconclusive: -35.5%
23 | Cc1cc(Br)ccc1OCCCCN1CCC(C)CC1 | inconclusive: -46.1%
24 | Cc1cc(Nc2cccc(Cl)c2)c2ccccc2n1 | inconclusive: -30.6%
25 | Cc1ccc(CSc2nnc(-c3cccc(S(=O)(=O)N4CCOCC4)c3)n2CC(C)C)cc1 | inconclusive: -30.7%
26 | CCc1ccc(CNC(=O)CCCn2c(=O)c3cccn3c3cccnc32)cc1 | inconclusive: -43.5%
27 | COC(=O)c1ccccc1N=Nc1c(N)n[nH]c1N | active: -60%
28 | O=C(C[C@@H]1CC[C@@H]2[C@H](COC[C@H](O)CN2S(=O)(=O)c2ccccc2)O1)Nc1ccccc1 | inconclusive: -34.6%
29 | NS(=O)(=O)c1ccc(Nc2ccc3cc(S(=O)(=O)N4CCCCC4)ccc3n2)cc1 | inconclusive: -33.8%
30 | Cc1ccccc1CC1(CO)CCCN(C(=O)Cc2c(F)ccc(F)c2F)C1 (stereo not drawn) | inactive: -8.31%
31 | CCOC(=O)N1CCN(C(=O)CSCC(=O)Nc2nc(-c3ccc4c(c3)OCO4)cs2)CC1 | inconclusive: -30.2%
32 | COc1ccc(/C=N/N2CCN(C)CC2)c(OC)c1OC | inactive: 21.8%
33 | O=C(NCCc1csc(-c2ccccc2)n1)c1cccs1 | inconclusive: -35.5%
34 | COc1cccc(C(=O)OCCN2CCCCC2)c1 | inactive: 0%
35 | Cc1c(O)ccc(C(=O)CN2C(=O)c3ccccc3C2=O)c1O | inconclusive: -43%
36 | O=C(CSc1nc2ccc(Cl)cc2[nH]1)NC1CCCc2ccccc21 (stereo not drawn) | inconclusive: -41.3%
37 | Cc1ccc(C(=O)c2ccc([N+](=O)[O-])cc2)cc1 | inconclusive: -40.8%
38 | COc1cc(F)cc(C2=CC(=O)C[C@H](c3ccc(F)cc3)C2)c1 | inconclusive: -37.8%
39 | Cc1nn(CC(=O)N2CCCCCC2)c(=O)c2cc3occc3n12 | inactive: -11.1%
40 | CC(C)N(C(=O)[C@H]1C[C@H](CC(=O)NCc2ccco2)C(=O)N2CCc3c([nH]c4cc(-c5ccco5)ccc34)[C@]12C)C(C)C | inconclusive: -36.2%
41 | Cc1ccc(Cl)cc1N1CCN(C(=O)c2ccc(CN3CCOCC3)cc2)CC1 | inconclusive: -34.1%
42 | COc1cccc(OCC(=O)NNC(=O)C(=O)Nc2cccc(C)c2)c1 | inconclusive: -42.1%

Row | SMILES | activity change
43 | Cc1cc(C)c2c(-n3cccc3)c(C(=O)NNS(=O)(=O)c3ccc(Br)cc3)sc2n1 | inactive: 16.1%
44 | N/C(=N\OC(=O)c1ccccc1)C(C(=O)NOC(=O)c1ccccc1)C1CCCCC1 (stereo not drawn) | inconclusive: -39%
45 | O=[N+]([O-])c1cc2c(c(CSc3nnc(Nc4ccccc4)s3)c1)OCOC2 | inactive: -18.4%
46 | CCC/C=C/c1ccc(CN2C(CC(C)C)C(=O)N(Cc3cn(CCC4OCCCO4)nn3)CCS2(=O)=O)cc1 (stereo not drawn) | inconclusive: -43.6%
47 | CCCCCNC(=O)C(C#N)c1nc2ccccc2nc1N1CCCC1 (stereo not drawn) | inactive: 19.4%
48 | COc1ccc2[nH]c(C)c(C(=O)CN3CCN(C/C=C/c4ccccc4)CC3)c2c1 | inconclusive: -30.7%
49 | CC1CC(=O)C(C(C2=C(O)CC(C)CC2=O)c2ccccc2)=C(O)C1 (stereo not drawn) | inactive: -7.72%
50 | CCC(C(=O)NCCc1ccc(OC)cc1OC)n1nc(C)n2c(cc3occc32)c1=O (stereo not drawn) | inconclusive: -45.3%
51 | CCS(=O)(=O)N1Cc2ccccc2CC1C(=O)Nc1ccc(F)cc1 (stereo not drawn) | inactive: 16.3%
52 | COc1cccc(CNc2nc3cc(-c4ccccc4C)sc3c(=O)n2C)c1OC | inconclusive: -36.8%
53 | O=C(Nc1ccc(Cl)cc1)Nc1ccc(-c2cnco2)cc1 | inconclusive: -49%
54 | Cc1[nH]c2ccccc2c1C(=O)COC(=O)c1c(-c2c(F)cccc2Cl)noc1C | inconclusive: -41.3%
55 | COC(=O)C1=C(N)Oc2cc(C)n(CCc3ccccc3)c(=O)c2C1c1cccnc1 (stereo not drawn) | inconclusive: -42.7%
56 | CC(C)CCc1noc(CN2CCC(C(=O)N3CCOCC3)CC2)n1 | inactive: 13.3%
57 | O=C(OCC(=O)N1N=C(c2ccc(Cl)cc2)CC1c1ccco1)c1ccco1 (stereo not drawn) | inactive: -2.58%
58 | COc1ccc(C2CC(c3ccccc3)=NN2c2ccc(S(N)(=O)=O)cc2)cc1 (stereo not drawn) | inconclusive: -42.1%
59 | CN(CCCNC(=O)CCC(=O)N1CCOc2ccc(Cl)cc21)Cc1ccccc1 | inconclusive: -31%
60 | COc1ccc(CNS(=O)(=O)c2ccc3c(c2)CC(C)N3C(=O)C2CC2)cc1 (stereo not drawn) | active: -64.9%
61 | O=C(N/N=C/C(Cl)=C/c1ccc([N+](=O)[O-])cc1)C(=O)Nc1ccc(C(=O)O)cc1 | active: -52.1%
62 | O=C(CSc1nccn1-c1cccc(Cl)c1)Nc1ccc2c(c1)OCCO2 | inconclusive: -33.2%
63 | CC1CCCC(C)N1C(=C(Cl)Cl)C(=C1SCCS1)[N+](=O)[O-] (stereo not drawn) | inconclusive: -48.6%

Row | SMILES | activity change
64 | S=C(NC1CCCC1)N1CCN(c2ccc(Cl)cc2)CC1 | inconclusive: -45.5%
65 | CCC(C)NS(=O)(=O)c1ccc(S(=O)(=O)N2CC=C(c3ccc(F)cc3)CC2)cc1 (stereo not drawn) | inactive: -25.6%
66 | CCNC(=O)c1ccccc1CCc1ccccc1 | inactive: 21.2%
67 | CC1CCN(c2ccc(-c3cccc(NC(=O)C(F)(F)F)c3)nn2)CC1 | inconclusive: -40.4%
68 | CNC(=O)COc1ccc(Cl)c2cccnc12 | inconclusive: -45%
69 | COc1ccc(N(C(=O)c2snc(C(N)=O)c2N)C(C(=O)NCc2ccccc2)c2ccc(O)cc2)cc1OC (stereo not drawn) | inactive: 28.1%
70 | Cn1c(C(=O)c2ccncc2)cc2ccccc21 | inconclusive: -32.2%
71 | COc1cc2c(C#N)c(N3CCc4ccccc4C3)nc(N)c2c(N)n1 | active: -53.6%
72 | O=[N+]([O-])c1ccc(O)c(C2CCCCC2)c1 | inconclusive: -37.3%
73 | N#Cc1nc(COc2ccccc2Cl)oc1N1CCCCCC1 | inconclusive: -37.8%
74 | O=S(=O)(Nc1cccc2ncccc12)c1cccc(C(F)(F)F)c1 | inactive: 47.3%
75 | O=S1(=O)N=C(N/N=C/c2ccccn2)c2ccccc21 | inactive: 108%
76 | C[C@]1(CO)CCC[C@@]2(C)C1CC[C@@H](CO)[C@@H]2CCc1ccoc1 (stereo partly drawn) | inactive: 0%
77 | CCc1ccc(OCC(=O)NC(NC(=S)Nc2ccccc2)C(Cl)(Cl)Cl)cc1 (stereo not drawn) | inconclusive: -31.3%
78 | Cc1nc(NCc2ccco2)c2oc3ccccc3c2n1 | inactive: -5.34%
79 | Cc1ccc(NC(=O)NC2CCCCCCC2)cc1 | inconclusive: -44.7%
80 | O=C(c1ccccc1Cl)N(Cc1ccc(Br)cc1)N1C(=O)CCCC1=O | inconclusive: -39.5%
81 | Cc1cccc(CN2CCC(Oc3ccc(C(=O)N4CCCCC4)cc3)CC2)c1 | inconclusive: -45%
82 | CC(=O)SC1CC2=CC(=O)CCC2(C)C2CCC3(C)C(CCC34CCC(=O)O4)C12 (stereo not drawn) | inconclusive: -40.1%
83 | Cc1ccc(N(Cc2ccccc2)C(=O)c2cc(S(=O)(=O)N3CCOCC3)ccc2N2CCCC2)cc1 | inactive: -4.6%
